A lower IC50 marks a more sensitive line; a fit beyond the top or the lowest dose is shown as a bound at that dose. AUC, from the same fit, is the share of area under the viability curve across the 256-fold dose range; the more sensitive the line, the further below 1. For some assays here: Where the top dose is marked as inferred, it was derived from the fitted curves, not read from the paper.
Experiments:
Test in all cases: Viability of human cancer cell lines after 72 h of drug (GDSC screen)
17-AAG = compound: C=CCNC1=C2C[C@@H](C)C[C@H](OC)[C@H](O)[C@@H](C)/C=C(\C)[C@H](OC(N)=O)[C@@H](OC)/C=C\C=C(/C)C(=O)NC(=CC1=O)C2=O [17-AAG]; conditions: top dose 1 µM
Description: (§1)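 Human cancer cell lines in 384-well plates, medium with 10% serum, drug for 72 h over a 256-fold dose range (nine 2-fold or five 4-fold steps up to the top dose). Adherent lines were fixed and stained with the nucleic acid dye Syto60, suspension lines read with resazurin; signal relative to control wells, capped at 0 and 100%. One two-parameter sigmoid per drug and line, fitted in a mixed model over all curves with the slope shared within a line.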

CCT018159 = compound: CCc1cc(-c2n[nH]c(C)c2-c2ccc3c(c2)OCCO3)c(O)cc1O [CCT018159]; conditions: top dose 10 µM; top dose inferred
Description: as §1

BIX02189 = compound: CN(C)Cc1cccc(N=C(c2ccccc2)c2c(O)[nH]c3cc(C(=O)N(C)C)ccc23)c1 [BIX02189]; conditions: top dose 20 µM; top dose inferred
Description: as §1

Dimethyloxalylglycine = compound: COC(=O)CNC(=O)C(=O)OC [Dimethyloxalylglycine]; conditions: top dose 4000 µM; top dose inferred
Description: as §1

Doxorubicin = compound: COc1cccc2c1C(=O)c1c(O)c3c(c(O)c1C2=O)C[C@@](O)(C(=O)CO)C[C@@H]3O[C@H]1C[C@H](N)[C@H](O)[C@H](C)O1 [Doxorubicin]; conditions: top dose 1.024 µM
Description: as §1

OSI-027 = compound: COc1cccc2cc(-c3nc([C@H]4CC[C@H](C(=O)O)CC4)n4ncnc(N)c34)[nH]c12 [OSI-027]; conditions: top dose 20 µM
Description: as §1

Vismodegib = compound: CS(=O)(=O)c1ccc(C(=O)Nc2ccc(Cl)c(-c3ccccn3)c2)c(Cl)c1 [Vismodegib]; conditions: top dose 10 µM; top dose inferred
Description: as §1

VX-11e = compound: Cc1cnc(Nc2ccc(F)cc2Cl)nc1-c1c[nH]c(C(=O)N[C@H](CO)c2cccc(Cl)c2)c1 [VX-11e]; conditions: top dose 5.12 µM; top dose inferred
Description: as §1

TG101348 = compound: Cc1cnc(Nc2ccc(OCCN3CCCC3)cc2)nc1Nc1cccc(S(=O)(=O)NC(C)(C)C)c1 [TG101348]; conditions: top dose 10.24 µM
Description: as §1

UNC1215 = compound: O=C(c1ccc(C(=O)N2CCC(N3CCCC3)CC2)c(Nc2ccccc2)c1)N1CCC(N2CCCC2)CC1 [UNC1215]; conditions: top dose 1 µM; top dose inferred
Description: as §1

Row | Cell Line | AUC (17-AAG) | IC50 (17-AAG) [µM] | AUC (CCT018159) | IC50 (CCT018159) [µM] | AUC (BIX02189) | IC50 (BIX02189) [µM] | AUC (Dimethyloxalylglycine) | IC50 (Dimethyloxalylglycine) [µM] | AUC (Doxorubicin) | IC50 (Doxorubicin) [µM] | AUC (OSI-027) | IC50 (OSI-027) [µM] | AUC (Vismodegib) | IC50 (Vismodegib) [µM] | AUC (VX-11e) | IC50 (VX-11e) [µM] | AUC (TG101348) | IC50 (TG101348) [µM] | AUC (UNC1215) | IC50 (UNC1215) [µM]
1 | NCI-H2052 (mesothelioma, adherent) | 0.846 | > 1 | 0.96 | > 10 | 0.969 | > 20 | 0.658 | 779 | 0.635 | 0.168 | 0.939 | > 20 | 0.983 | > 10 | 0.969 | > 5.12 | 0.855 | > 10.2 |  | 
2 | 201T (lung adenocarcinoma, adherent) | 0.649 | 0.18 | 0.96 | > 10 | 0.947 | > 20 | 0.173 | 18.8 | 0.354 | 0.0227 | 0.745 | 7.67 | 0.981 | > 10 | 0.967 | > 5.12 | 0.836 | 9.43 |  | 
3 | MSTO-211H (mesothelioma, adherent) | 0.809 | 0.461 | 0.991 | > 10 | 0.991 | > 20 | 0.932 | > 4000 | 0.991 | > 1.02 | 0.856 | 13.8 | 0.991 | > 10 | 0.991 | > 5.12 | 0.958 | > 10.2 |  | 
4 | MY-M12 (leukaemia, suspension) | 0.915 | > 1 | 0.909 | > 10 | 0.869 | > 20 | 0.148 | 16.7 | 0.407 | 0.0345 | 0.112 | < 0.0781 | 0.974 | > 10 | 0.78 | 2.4 | 0.628 | 1.51 |  | 
5 | FADU (head and neck, adherent) | 0.263 | 0.0136 | 0.745 | 3.04 | 0.98 | > 20 | 0.387 | 124 | 0.597 | 0.117 | 0.925 | > 20 | 0.988 | > 10 | 0.984 | > 5.12 | 0.932 | > 10.2 |  | 
6 | PA-1 (ovary, adherent) | 0.917 | 0.928 | 0.81 | 3.92 | 0.898 | 15.4 | 0.37 |  | 0.212 |  | 0.068 | < 0.0781 | 0.992 | > 10 | 0.99 | > 5.12 | 0.573 | 0.968 |  | 
7 | DAN-G (pancreas, adherent) | 0.783 | 0.365 | 0.974 | > 10 | 0.987 | > 20 | 0.991 | > 4000 | 0.974 | > 1.02 | 0.703 | 4.28 | 0.991 | > 10 | 0.983 | > 5.12 | 0.951 | > 10.2 |  | 
8 | GMS-10 (glioma, adherent) | 0.537 | 0.0789 | 0.835 | 6.53 | 0.985 | > 20 | 0.641 | 611 | 0.817 | 0.569 | 0.96 | > 20 | 0.988 | > 10 | 0.987 | > 5.12 | 0.913 | > 10.2 |  | 
9 | PANC-04-03 (pancreas, adherent) | 0.639 | 0.191 | 0.858 | > 10 | 0.947 | > 20 | 0.69 | 1190 | 0.792 | 0.83 | 0.846 | > 20 | 0.976 | > 10 | 0.912 | > 5.12 | 0.918 | > 10.2 |  | 
10 | NCI-H64 (small cell lung carcinoma, suspension) | 0.996 | > 1 | 0.992 | > 10 | 0.984 | > 20 | 0.499 | 249 | 0.629 |  | 0.122 | 0.134 | 0.996 | > 10 | 0.994 | > 5.12 | 0.843 | 4.67 |  | 
11 | LN-405 (glioma, adherent) | 0.719 | 0.31 |  |  | 0.981 | > 20 | 0.727 | 1330 | 0.883 | > 1.02 | 0.45 | 0.884 | 0.977 | > 10 | 0.978 | > 5.12 | 0.946 | > 10.2 | 0.981 | > 1
12 | SNU-423 (liver, adherent) | 0.963 | > 1 |  |  | 0.928 | > 20 | 0.466 | 198 | 0.524 | 0.0752 | 0.235 | 0.183 | 0.982 | > 10 | 0.951 | > 5.12 | 0.798 | 5.85 | 0.98 | > 1
13 | MKN28 (stomach, adherent) | 0.835 | 0.675 | 0.953 | > 10 | 0.933 | > 20 | 0.713 | 1020 | 0.384 | 0.0305 | 0.94 | > 20 | 0.972 | > 10 | 0.912 | > 5.12 | 0.88 | > 10.2 |  | 
14 | SiHa (cervix, adherent) | 0.546 | 0.085 |  |  | 0.987 | > 20 | 0.646 | 675 | 0.969 | > 1.02 | 0.935 | > 20 | 0.987 | > 10 | 0.986 | > 5.12 | 0.987 | > 10.2 | 0.985 | > 1
15 | KYSE-140 (oesophagus, adherent) | 0.961 | > 1 | 0.916 | > 10 | 0.855 | 19.3 | 0.794 | 2120 | 0.459 | 0.0486 | 0.477 | 1.07 | 0.977 | > 10 | 0.857 | 5.08 | 0.785 | 5.02 |  | 
16 | JHU-011 (head and neck, adherent) | 0.33 | 0.0212 | 0.863 | 8.42 | 0.955 | > 20 | 0.58 | 414 | 0.25 | 0.0124 | 0.428 | 0.799 | 0.961 | > 10 | 0.929 | > 5.12 | 0.711 | 2.5 |  | 
17 | IGR-1 (melanoma, adherent) | 0.884 | 0.852 | 0.868 | 7.28 | 0.941 | > 20 | 0.802 | 1700 | 0.431 | 0.0425 | 0.977 | > 20 | 0.967 | > 10 | 0.773 | 1.75 | 0.989 | > 10.2 |  | 
18 | OMC-1 (cervix, adherent) | 0.622 | 0.138 |  |  | 0.968 | > 20 | 0.484 | 226 | 0.632 | 0.151 | 0.543 | 1.65 | 0.988 | > 10 | 0.959 | > 5.12 | 0.932 | > 10.2 | 0.986 | > 1
19 | RPMI-2650 (head and neck, adherent) | 0.916 | > 1 |  |  | 0.951 | > 20 | 0.527 | 299 | 0.298 | 0.0164 | 0.451 | 0.909 | 0.974 | > 10 | 0.963 | > 5.12 | 0.879 | > 10.2 | 0.983 | > 1
20 | SUP-B15 (lymphoblastic leukaemia, suspension) | 0.982 | > 1 | 0.968 | > 10 | 0.858 | 15.4 | 0.178 | 28.3 | 0.182 | 0.00748 | 0.067 | < 0.0781 | 0.937 | > 10 | 0.869 | 4.38 | 0.586 | 1.09 |  | 
21 | NCI-H510A (small cell lung carcinoma, semi-adherent) | 0.854 | 0.692 | 0.936 | > 10 | 0.949 | > 20 | 0.495 | 242 | 0.721 | 0.254 | 0.624 | 2.65 | 0.958 | > 10 | 0.96 | > 5.12 | 0.876 | 8.69 |  | 
22 | HuP-T4 (pancreas, adherent) | 0.675 | 0.199 | 0.969 | > 10 | 0.925 | > 20 | 0.402 | 133 | 0.487 | 0.059 | 0.49 | 1.17 | 0.984 | > 10 | 0.716 | 1.36 | 0.791 | 4.91 |  | 
23 | NCI-H838 (lung adenocarcinoma, adherent) | 0.456 | 0.047 |  |  | 0.962 | > 20 | 0.729 | 1160 | 0.747 | 0.338 | 0.964 | > 20 | 0.987 | > 10 | 0.983 | > 5.12 | 0.982 | > 10.2 | 0.985 | > 1
24 | RPMI-7951 (melanoma, adherent) | 0.223 | 0.01 | 0.858 | 7.8 | 0.966 | > 20 | 0.541 |  | 0.617 | 0.133 | 0.372 | 0.561 | 0.964 | > 10 | 0.877 | 4.88 | 0.889 | > 10.2 |  | 
25 | GCIY (stomach, adherent) | 0.863 | > 1 | 0.9 | > 10 | 0.967 | > 20 | 0.389 | 119 | 0.832 | 0.773 | 0.264 | 0.239 | 0.983 | > 10 | 0.967 | > 5.12 | 0.834 | 7.91 |  | 
26 | COLO-824 (breast, adherent) | 0.626 | 0.14 |  |  | 0.972 | > 20 | 0.793 | 1880 | 0.932 | > 1.02 | 0.844 | 14.8 | 0.985 | > 10 | 0.974 | > 5.12 | 0.817 | 5.89 | 0.984 | > 1

From the supplement of paper PMC4967469
